# Some of the results follow. The full chains were built here from the parent and the listed change. Values near 0.05 are background.
# B1: TEV protease; numbered along this chain (parent)
# chain: MGESLFKGPRDYNPISSSICHLTNESDGHTTSLYGIGFGPFIITNKHLFRRNNGTLVVQSLHGVFKVKDTTTLQQHLVDGRDMIIIRMPKDFPPFPQKLKFREPQREERICLVTTNFQTKSMSSMVSDTSCTFPSGDGIFWKHWIQTKDGQCGSPLVSTRDGFIVGIHSASNFTNTNNYFTSVPKNFMELLTNQEAQQWVSGWRLNADSVLWGGHKVFMVKPEEPFQPVKEATQL
# Variants of: B1
# Experiment: raw area under fraction-flipped curve 0-4 h after induction (AUC4h, not background-subtracted), DNA-recorder readout of cleavage of the substrate (dimensionless); higher = more cleavage of the substrate by the protease variant
# Conditions: temperature: 34 °C; time window: 0-4 h after rhamnose induction
# Protocol: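 In vivo DNA recorder in E. coli TOP10(DE3) ΔrhaA at 34 °C. Each TEVp single-site mutant (parent TEVp 0) is paired with a single-site variant of the 7-mer TEVs (canonical ENLYFQ|S). The substrate sits between flexible linkers in a Bxb1-sfGFP-TEVs-SsrA fusion, so cleavage stabilises Bxb1 and speeds flipping of a recombination array, read by NGS. The value is the raw area under the fraction-flipped curve over 0-4 h after rhamnose induction (AUC4h), with ≥20 reads per time point. It is not background-subtracted; inactive controls average about 0.047.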
# 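Further: Bxb1 expression induced with 0.2% (w/v) L-rhamnose at OD600 near 0.5, cultures sampled hourly, flipped fraction per protease–substrate barcode pair counted by paired-end Illumina sequencing.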
Variant,area with substrate EALYFQS,area with substrate EDLYFQS,area with substrate EFLYFQS,area with substrate EHLYFQS,area with substrate EILYFQS,area with substrate ELLYFQS,area with substrate EMLYFQS,area with substrate ERLYFQS,area with substrate ESLYFQS,area with substrate ETLYFQS
MFESLFKGPRDYNPISSSICHLTNESDGHTTSLYGIGFGPFIITNKHLFRRNNGTLVVQSLHGVFKVKDTTTLQQHLVDGRDMIIIRMPKDFPPFPQKLKFREPQREERICLVTTNFQTKSMSSMVSDTSCTFPSGDGIFWKHWIQTKDGQCGSPLVSTRDGFIVGIHSASNFTNTNNYFTSVPKNFMELLTNQEAQQWVSGWRLNADSVLWGGHKVFMVKPEEPFQPVKEATQL [G2F],0.129,0.145,0.152,0.149,0.131,0.129,0.145,0.179,0.159,0.198
MIESLFKGPRDYNPISSSICHLTNESDGHTTSLYGIGFGPFIITNKHLFRRNNGTLVVQSLHGVFKVKDTTTLQQHLVDGRDMIIIRMPKDFPPFPQKLKFREPQREERICLVTTNFQTKSMSSMVSDTSCTFPSGDGIFWKHWIQTKDGQCGSPLVSTRDGFIVGIHSASNFTNTNNYFTSVPKNFMELLTNQEAQQWVSGWRLNADSVLWGGHKVFMVKPEEPFQPVKEATQL [G2I],0.164,,,0.158,,,,,0.149,
MGASLFKGPRDYNPISSSICHLTNESDGHTTSLYGIGFGPFIITNKHLFRRNNGTLVVQSLHGVFKVKDTTTLQQHLVDGRDMIIIRMPKDFPPFPQKLKFREPQREERICLVTTNFQTKSMSSMVSDTSCTFPSGDGIFWKHWIQTKDGQCGSPLVSTRDGFIVGIHSASNFTNTNNYFTSVPKNFMELLTNQEAQQWVSGWRLNADSVLWGGHKVFMVKPEEPFQPVKEATQL [E3A],0.118,,,0.0935,,0.0786,0.118,0.0862,,0.114
MGEALFKGPRDYNPISSSICHLTNESDGHTTSLYGIGFGPFIITNKHLFRRNNGTLVVQSLHGVFKVKDTTTLQQHLVDGRDMIIIRMPKDFPPFPQKLKFREPQREERICLVTTNFQTKSMSSMVSDTSCTFPSGDGIFWKHWIQTKDGQCGSPLVSTRDGFIVGIHSASNFTNTNNYFTSVPKNFMELLTNQEAQQWVSGWRLNADSVLWGGHKVFMVKPEEPFQPVKEATQL [S4A],0.107,0.119,,0.123,,,,,0.1,0.113
MGESLTKGPRDYNPISSSICHLTNESDGHTTSLYGIGFGPFIITNKHLFRRNNGTLVVQSLHGVFKVKDTTTLQQHLVDGRDMIIIRMPKDFPPFPQKLKFREPQREERICLVTTNFQTKSMSSMVSDTSCTFPSGDGIFWKHWIQTKDGQCGSPLVSTRDGFIVGIHSASNFTNTNNYFTSVPKNFMELLTNQEAQQWVSGWRLNADSVLWGGHKVFMVKPEEPFQPVKEATQL [F6T],0.129,,,,,,,,0.14,
MGESLFVGPRDYNPISSSICHLTNESDGHTTSLYGIGFGPFIITNKHLFRRNNGTLVVQSLHGVFKVKDTTTLQQHLVDGRDMIIIRMPKDFPPFPQKLKFREPQREERICLVTTNFQTKSMSSMVSDTSCTFPSGDGIFWKHWIQTKDGQCGSPLVSTRDGFIVGIHSASNFTNTNNYFTSVPKNFMELLTNQEAQQWVSGWRLNADSVLWGGHKVFMVKPEEPFQPVKEATQL [K7V],0.0798,0.0578,,,0.0607,0.0765,0.0824,0.0809,0.0726,0.0755
MGESLFWGPRDYNPISSSICHLTNESDGHTTSLYGIGFGPFIITNKHLFRRNNGTLVVQSLHGVFKVKDTTTLQQHLVDGRDMIIIRMPKDFPPFPQKLKFREPQREERICLVTTNFQTKSMSSMVSDTSCTFPSGDGIFWKHWIQTKDGQCGSPLVSTRDGFIVGIHSASNFTNTNNYFTSVPKNFMELLTNQEAQQWVSGWRLNADSVLWGGHKVFMVKPEEPFQPVKEATQL [K7W],0.112,,,,,,,0.0837,,0.114
MGESLFKGNRDYNPISSSICHLTNESDGHTTSLYGIGFGPFIITNKHLFRRNNGTLVVQSLHGVFKVKDTTTLQQHLVDGRDMIIIRMPKDFPPFPQKLKFREPQREERICLVTTNFQTKSMSSMVSDTSCTFPSGDGIFWKHWIQTKDGQCGSPLVSTRDGFIVGIHSASNFTNTNNYFTSVPKNFMELLTNQEAQQWVSGWRLNADSVLWGGHKVFMVKPEEPFQPVKEATQL [P9N],0.112,0.127,0.0939,,,0.114,,,0.0972,
MGESLFKGPRTYNPISSSICHLTNESDGHTTSLYGIGFGPFIITNKHLFRRNNGTLVVQSLHGVFKVKDTTTLQQHLVDGRDMIIIRMPKDFPPFPQKLKFREPQREERICLVTTNFQTKSMSSMVSDTSCTFPSGDGIFWKHWIQTKDGQCGSPLVSTRDGFIVGIHSASNFTNTNNYFTSVPKNFMELLTNQEAQQWVSGWRLNADSVLWGGHKVFMVKPEEPFQPVKEATQL [D11T],0.117,0.134,,,0.0843,0.0956,,,,
MGESLFKGPRDRNPISSSICHLTNESDGHTTSLYGIGFGPFIITNKHLFRRNNGTLVVQSLHGVFKVKDTTTLQQHLVDGRDMIIIRMPKDFPPFPQKLKFREPQREERICLVTTNFQTKSMSSMVSDTSCTFPSGDGIFWKHWIQTKDGQCGSPLVSTRDGFIVGIHSASNFTNTNNYFTSVPKNFMELLTNQEAQQWVSGWRLNADSVLWGGHKVFMVKPEEPFQPVKEATQL [Y12R],0.122,0.134,,,0.103,,,0.0837,0.12,

# Same assay, conditions: temperature: 34 °C; time window: 0-4 h after rhamnose induction
Variant,area with substrate EVLYFQS,area with substrate EELYFQS,area with substrate EGLYFQS,area with substrate EWLYFQS,area with substrate EYLYFQS,area with substrate EKLYFQS,area with substrate EPLYFQS,area with substrate EQLYFQS
MFESLFKGPRDYNPISSSICHLTNESDGHTTSLYGIGFGPFIITNKHLFRRNNGTLVVQSLHGVFKVKDTTTLQQHLVDGRDMIIIRMPKDFPPFPQKLKFREPQREERICLVTTNFQTKSMSSMVSDTSCTFPSGDGIFWKHWIQTKDGQCGSPLVSTRDGFIVGIHSASNFTNTNNYFTSVPKNFMELLTNQEAQQWVSGWRLNADSVLWGGHKVFMVKPEEPFQPVKEATQL [G2F],0.133,,,,,,,
MIESLFKGPRDYNPISSSICHLTNESDGHTTSLYGIGFGPFIITNKHLFRRNNGTLVVQSLHGVFKVKDTTTLQQHLVDGRDMIIIRMPKDFPPFPQKLKFREPQREERICLVTTNFQTKSMSSMVSDTSCTFPSGDGIFWKHWIQTKDGQCGSPLVSTRDGFIVGIHSASNFTNTNNYFTSVPKNFMELLTNQEAQQWVSGWRLNADSVLWGGHKVFMVKPEEPFQPVKEATQL [G2I],0.153,0.224,0.141,0.133,0.165,,,
MGASLFKGPRDYNPISSSICHLTNESDGHTTSLYGIGFGPFIITNKHLFRRNNGTLVVQSLHGVFKVKDTTTLQQHLVDGRDMIIIRMPKDFPPFPQKLKFREPQREERICLVTTNFQTKSMSSMVSDTSCTFPSGDGIFWKHWIQTKDGQCGSPLVSTRDGFIVGIHSASNFTNTNNYFTSVPKNFMELLTNQEAQQWVSGWRLNADSVLWGGHKVFMVKPEEPFQPVKEATQL [E3A],0.102,0.155,,,,0.111,0.126,0.172
MGEALFKGPRDYNPISSSICHLTNESDGHTTSLYGIGFGPFIITNKHLFRRNNGTLVVQSLHGVFKVKDTTTLQQHLVDGRDMIIIRMPKDFPPFPQKLKFREPQREERICLVTTNFQTKSMSSMVSDTSCTFPSGDGIFWKHWIQTKDGQCGSPLVSTRDGFIVGIHSASNFTNTNNYFTSVPKNFMELLTNQEAQQWVSGWRLNADSVLWGGHKVFMVKPEEPFQPVKEATQL [S4A],,,0.0979,,,,,
MGESLTKGPRDYNPISSSICHLTNESDGHTTSLYGIGFGPFIITNKHLFRRNNGTLVVQSLHGVFKVKDTTTLQQHLVDGRDMIIIRMPKDFPPFPQKLKFREPQREERICLVTTNFQTKSMSSMVSDTSCTFPSGDGIFWKHWIQTKDGQCGSPLVSTRDGFIVGIHSASNFTNTNNYFTSVPKNFMELLTNQEAQQWVSGWRLNADSVLWGGHKVFMVKPEEPFQPVKEATQL [F6T],,,,,,,,0.0047
MGESLFVGPRDYNPISSSICHLTNESDGHTTSLYGIGFGPFIITNKHLFRRNNGTLVVQSLHGVFKVKDTTTLQQHLVDGRDMIIIRMPKDFPPFPQKLKFREPQREERICLVTTNFQTKSMSSMVSDTSCTFPSGDGIFWKHWIQTKDGQCGSPLVSTRDGFIVGIHSASNFTNTNNYFTSVPKNFMELLTNQEAQQWVSGWRLNADSVLWGGHKVFMVKPEEPFQPVKEATQL [K7V],0.0526,0.0698,,,,,0.0684,0.0558
MGESLFWGPRDYNPISSSICHLTNESDGHTTSLYGIGFGPFIITNKHLFRRNNGTLVVQSLHGVFKVKDTTTLQQHLVDGRDMIIIRMPKDFPPFPQKLKFREPQREERICLVTTNFQTKSMSSMVSDTSCTFPSGDGIFWKHWIQTKDGQCGSPLVSTRDGFIVGIHSASNFTNTNNYFTSVPKNFMELLTNQEAQQWVSGWRLNADSVLWGGHKVFMVKPEEPFQPVKEATQL [K7W],,,,0.0787,0.0802,,0.137,
MGESLFKGNRDYNPISSSICHLTNESDGHTTSLYGIGFGPFIITNKHLFRRNNGTLVVQSLHGVFKVKDTTTLQQHLVDGRDMIIIRMPKDFPPFPQKLKFREPQREERICLVTTNFQTKSMSSMVSDTSCTFPSGDGIFWKHWIQTKDGQCGSPLVSTRDGFIVGIHSASNFTNTNNYFTSVPKNFMELLTNQEAQQWVSGWRLNADSVLWGGHKVFMVKPEEPFQPVKEATQL [P9N],,,0.138,0.104,,0.0994,,
MGESLFKGPRTYNPISSSICHLTNESDGHTTSLYGIGFGPFIITNKHLFRRNNGTLVVQSLHGVFKVKDTTTLQQHLVDGRDMIIIRMPKDFPPFPQKLKFREPQREERICLVTTNFQTKSMSSMVSDTSCTFPSGDGIFWKHWIQTKDGQCGSPLVSTRDGFIVGIHSASNFTNTNNYFTSVPKNFMELLTNQEAQQWVSGWRLNADSVLWGGHKVFMVKPEEPFQPVKEATQL [D11T],,0.112,0.113,,,,,0.195
MGESLFKGPRDRNPISSSICHLTNESDGHTTSLYGIGFGPFIITNKHLFRRNNGTLVVQSLHGVFKVKDTTTLQQHLVDGRDMIIIRMPKDFPPFPQKLKFREPQREERICLVTTNFQTKSMSSMVSDTSCTFPSGDGIFWKHWIQTKDGQCGSPLVSTRDGFIVGIHSASNFTNTNNYFTSVPKNFMELLTNQEAQQWVSGWRLNADSVLWGGHKVFMVKPEEPFQPVKEATQL [Y12R],,0.12,0.123,0.0883,0.124,0.129,0.0946,

# Source: the supplement of paper PMC12217912
